# Measured values reported in patent publication US20230181756A1, “CCR7 ANTIBODY DRUG CONJUGATES FOR TREATING CANCER” (Novartis AG, priority 2020, published 2023).
# T1: hCCR7 (CHO-flpin-hCCR7) (Homo sapiens, UniProt P32248)
# T1 construct: host or cells: CHO-flpin (doxycycline-induced)
# T1 sequence (P32248 25-378): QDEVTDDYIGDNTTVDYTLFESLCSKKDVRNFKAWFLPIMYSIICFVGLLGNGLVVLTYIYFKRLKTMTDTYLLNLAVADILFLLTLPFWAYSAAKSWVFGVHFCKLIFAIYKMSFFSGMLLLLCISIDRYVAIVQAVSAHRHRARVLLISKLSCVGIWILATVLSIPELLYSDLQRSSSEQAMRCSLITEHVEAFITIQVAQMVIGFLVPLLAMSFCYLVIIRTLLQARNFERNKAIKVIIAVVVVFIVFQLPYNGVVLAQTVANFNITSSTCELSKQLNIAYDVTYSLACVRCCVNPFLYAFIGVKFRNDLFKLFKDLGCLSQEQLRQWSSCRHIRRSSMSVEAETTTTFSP
# B1: 684E12 Parental: parental anti-CCR7 antibody derived from the murine hybridoma 684E12 (antibody, V domains shown)
# VH: EVHLVESGGGLVKPGGSLKLSCAASGFTFSNFAMSWVRQTPEKRLEWVATISTGGTYTYYPDSVKGRFTISRDNAKKTLYLQMSSLRSEDTAMYYCTRRGYDGVDKWGQGTTLTVSS
# VL: DVVMTQTPLTLSVTIGQPASISCKSGQSLLDSDGKTYLNWFLQRPGQSPKRLIYLVSKLDSGVPDRFTGSGSGTDFTLKISRVEAEDLGVYYCWQGTHFPQTFGGGTKLEIK
# Legend:
# hCCR7 (CHO-flpin-hCCR7) = biological target: T1, hCCR7 (CHO-flpin-hCCR7); assay: β-Arrestin assay, antagonistic mode (hCCL19); assay type: cell-based; conditions: antibody 0.5 μM, hCCL19 titrated, FIGS. 4B, 4C
# Description: To determine functionality of the anti-CCR7 antibodies, the β-Arrestin assay was performed using the PathHunter Flash Detection Kit from DiscoverX (#93-0247) either in agonistic mode for assessment of agonistic function or antagonistic mode for assessment of antagonistic function.
# In the antagonistic mode, CHO-flpin-hCCR7 cells were seeded as described above. The next day, a 6× working solution (0.5 μM×6=3.0 μM) in 1× assay buffer was made for each test antibody or positive control MAB197 (R&D reference antibody; ligand antagonist) or negative control hIgG. 5 μl of the 6× working solution of antibodies or controls were added to each well, briefly spun down, and incubated at 37° C./5% CO2 for 30 min. During incubation, serial dilutions of a 6× working solution in 1× assay buffer were made for hCCL19. Following incubation, 5 μl of the 6× working solution of hCCL19 were added to each well, briefly spun down, and incubated at 37° C./5% CO2 for 90 min. Following incubation, 25 μl of detection reagent were added to each well, incubated at room temperature in the dark while shaking for 20 min. Then, the luminescence signal for enzyme activity was measured on the Envision machine and analyzed in Excel.
# CCR7 immunogen scaffold = biological target: T2, CCR7 immunogen scaffold (Homo sapiens, UniProt P32248, C210S); assay: Epitope binning using Octet Red96 system (BLI); assay type: binding; conditions: pairwise competition, 100 nM antibody
# T2 construct: made in house
# T2 sequence (P32248 with tags, fused parts or gaps, stated change not applied): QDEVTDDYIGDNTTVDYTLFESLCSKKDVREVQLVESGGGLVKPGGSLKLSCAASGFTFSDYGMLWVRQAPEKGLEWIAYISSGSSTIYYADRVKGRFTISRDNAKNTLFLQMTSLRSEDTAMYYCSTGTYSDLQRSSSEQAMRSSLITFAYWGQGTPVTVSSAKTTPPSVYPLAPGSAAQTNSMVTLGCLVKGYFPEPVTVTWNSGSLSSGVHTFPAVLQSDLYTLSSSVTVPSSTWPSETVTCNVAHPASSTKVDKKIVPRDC
# T2 sequence (as listed by the source partner): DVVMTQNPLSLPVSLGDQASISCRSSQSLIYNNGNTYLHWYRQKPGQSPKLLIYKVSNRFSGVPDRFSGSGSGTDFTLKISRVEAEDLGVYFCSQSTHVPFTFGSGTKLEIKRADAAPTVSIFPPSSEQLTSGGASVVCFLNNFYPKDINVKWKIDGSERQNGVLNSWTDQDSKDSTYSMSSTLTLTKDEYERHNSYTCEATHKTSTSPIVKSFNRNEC
# Description: Epitope binning of anti-hCCR7 parental antibodies was performed using the Octet Red96 system (ForteBio, USA) that measures biolayer interferometry (BLI). The CCR7 immunogen scaffold was biotinylated via an AviTag™ utilizing BirA biotin ligase according to Manufacturer's recommendations (Avidity, LLC, USA cat #BirA500). The biotinylated immunogen scaffold was loaded at 1.5 μg/ml onto pre-equilibrated streptavidin sensors (ForteBio, USA). The sensors were then transferred to a solution containing 100 nM antibody A in 1× kinetics buffer (ForteBio, USA). Sensors were briefly washed in 1× kinetics buffer and transferred to a second solution containing 100 nM of competitor antibody. Binding kinetics was determined from raw data using the Octet Red96 system analysis software (Version 6.3, ForteBio, USA). Antibodies were tested in all pairwise combinations, as both Antibody A and as competitor antibody.
molecule,measurement,setting,value
B1,functionality in antagonistic format,hCCR7 (CHO-flpin-hCCR7),weak antagonist
same,Bin (epitope binning),CCR7 immunogen scaffold,1
